# Test results taken from the supplement of paper PMC8728848.
# This is one part of the list.
# Legend:
# Assay in all cases: glycan array binding signal (z-score within array); higher = stronger binding
# Details in all cases: glycan notation: IUPAC condensed, linker removed
# [1] = biological target: Neu5Ac(a2-3)Gal6S(b1-4)[Fuc(a1-3)]GlcNAc
# In short: (§1)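 Glycan array data were curated from 3228 arrays in the Consortium for Functional Glycomics database and kept only where the protein sequence was available. Glycan names were converted to IUPAC-condensed notation, and columns mapping to the same glycan were averaged. The binding signal is a within-array Z-score, averaged across arrays of the same protein sequence at different concentrations or buffers and across linkers. Negative Z-scores can be read as non-binding.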
# Neu5Ac(a2-3)GalNAc = biological target: Neu5Ac(a2-3)GalNAc
# In short: as §1
# [2] = biological target: Neu5Ac(a2-3)GalNAc(b1-4)GlcNAc
# In short: as §1
# [3] = biological target: Neu5Ac(a2-3)[GalNAc(b1-4)]Gal(b1-4)Glc
# In short: as §1
# [4] = biological target: Neu5Ac(a2-3)[GalNAc(b1-4)]Gal(b1-4)GlcNAc
# In short: as §1
# [5] = biological target: Neu5Ac(a2-3)[GalNAc(b1-4)]Gal(b1-4)GlcNAc(b1-3)GalNAc
# In short: as §1
# [6] = biological target: Neu5Ac(a2-3)[Neu5Ac(a2-6)]GalNAc
# In short: as §1
# Neu5Ac(a2-6)Gal = biological target: Neu5Ac(a2-6)Gal
# In short: as §1
# [7] = biological target: Neu5Ac(a2-6)Gal(b1-3)GlcNAc(b1-3)[Gal(b1-4)GlcNAc(b1-6)]Gal(b1-4)Glc
# In short: as §1
# Neu5Ac(a2-6)Gal(b1-4)Glc = biological target: Neu5Ac(a2-6)Gal(b1-4)Glc
# In short: as §1
# [8] = biological target: Neu5Ac(a2-6)Gal(b1-4)GlcNAc
# In short: as §1
# [9] = biological target: Neu5Ac(a2-6)Gal(b1-4)GlcNAc(b1-2)Man(a1-3)Man(b1-4)GlcNAc(b1-4)GlcNAc
# In short: as §1
# [10] = biological target: Neu5Ac(a2-6)Gal(b1-4)GlcNAc(b1-2)Man(a1-3)[Gal(b1-4)GlcNAc(b1-2)Man(a1-6)]Man(b1-4)GlcNAc(b1-4)GlcNAc
# In short: as §1
# [11] = biological target: Neu5Ac(a2-6)Gal(b1-4)GlcNAc(b1-2)Man(a1-3)[GlcNAc(b1-2)Man(a1-6)]Man(b1-4)GlcNAc(b1-4)GlcNAc
# In short: as §1
# [12] = biological target: Neu5Ac(a2-6)Gal(b1-4)GlcNAc(b1-2)Man(a1-3)[GlcNAc(b1-2)Man(b1-4)GlcNAc(b1-2)Man(a1-6)]Man(b1-4)GlcNAc(b1-4)GlcNAc
# In short: as §1
# [13] = biological target: Neu5Ac(a2-6)Gal(b1-4)GlcNAc(b1-2)Man(a1-3)[Man(a1-6)]Man(b1-4)GlcNAc(b1-4)GlcNAc
# In short: as §1
# [14] = biological target: Neu5Ac(a2-6)Gal(b1-4)GlcNAc(b1-2)Man(a1-3)[Neu5Ac(a2-6)Gal(b1-4)GlcNAc(b1-2)Man(a1-6)]Man(b1-4)GlcNAc(b1-4)GlcNAc
# In short: as §1
# [15] = biological target: Neu5Ac(a2-6)Gal(b1-4)GlcNAc(b1-2)Man(a1-3)[Neu5Ac(a2-6)Gal(b1-4)GlcNAc(b1-2)Man(a1-6)]Man(b1-4)GlcNAc(b1-4)[Fuc(a1-6)]GlcNAc
# In short: as §1
# [16] = biological target: Neu5Ac(a2-6)Gal(b1-4)GlcNAc(b1-2)Man(a1-6)Man(b1-4)GlcNAc(b1-4)GlcNAc
# In short: as §1
# [17] = biological target: Neu5Ac(a2-6)Gal(b1-4)GlcNAc(b1-2)Man(a1-6)[Gal(b1-4)GlcNAc(b1-2)Man(a1-3)]Man(b1-4)GlcNAc(b1-4)GlcNAc
# In short: as §1
# [18] = biological target: Neu5Ac(a2-6)Gal(b1-4)GlcNAc(b1-2)Man(a1-6)[GlcNAc(b1-2)Man(a1-3)]Man(b1-4)GlcNAc(b1-4)GlcNAc
# In short: as §1
# [19] = biological target: Neu5Ac(a2-6)Gal(b1-4)GlcNAc(b1-2)Man(a1-6)[Man(a1-3)]Man(b1-4)GlcNAc(b1-4)GlcNAc
# In short: as §1
# [20] = biological target: Neu5Ac(a2-6)Gal(b1-4)GlcNAc(b1-3)Gal(b1-3)GlcNAc
# In short: as §1
# [21] = biological target: Neu5Ac(a2-6)Gal(b1-4)GlcNAc(b1-3)Gal(b1-4)GlcNAc
# In short: as §1
# [22] = biological target: Neu5Ac(a2-6)Gal(b1-4)GlcNAc(b1-3)Gal(b1-4)GlcNAc(b1-3)Gal(b1-4)GlcNAc
# In short: as §1
# [23] = biological target: Neu5Ac(a2-6)Gal(b1-4)GlcNAc(b1-3)Gal(b1-4)[Fuc(a1-3)]GlcNAc(b1-3)Gal(b1-4)[Fuc(a1-3)]GlcNAc
# In short: as §1
# [24] = biological target: Neu5Ac(a2-6)Gal(b1-4)GlcNAc(b1-3)GalNAc
# In short: as §1
# [25] = biological target: Neu5Ac(a2-6)Gal(b1-4)GlcNAc(b1-3)[Neu5Ac(a2-6)Gal(b1-4)GlcNAc(b1-6)]GalNAc
# In short: as §1
# [26] = biological target: Neu5Ac(a2-6)Gal(b1-4)GlcNAc(b1-6)GalNAc
# In short: as §1
# [27] = biological target: Neu5Ac(a2-6)Gal(b1-4)GlcNAc(b1-6)[Gal(b1-3)GlcNAc(b1-3)]Gal(b1-4)Glc
# In short: as §1
# [28] = biological target: Neu5Ac(a2-6)Gal(b1-4)GlcNAc6S
# In short: as §1
# Neu5Ac(a2-6)GalNAc = biological target: Neu5Ac(a2-6)GalNAc
# In short: as §1
# [29] = biological target: Neu5Ac(a2-6)GalNAc(b1-4)GlcNAc
# In short: as §1
# [30] = biological target: Neu5Ac(a2-6)GalNAc(b1-4)GlcNAc6S
# In short: as §1
# [31] = biological target: Neu5Ac(a2-6)GlcNAc(b1-4)GlcNAc
# In short: as §1
# [32] = biological target: Neu5Ac(a2-6)GlcNAc(b1-4)GlcNAc(b1-4)GlcNAc
# In short: as §1
# Neu5Ac(a2-8)Neu5Ac = biological target: Neu5Ac(a2-8)Neu5Ac
# In short: as §1
# [33] = biological target: Neu5Ac(a2-8)Neu5Ac(a2-3)Gal(b1-3)GalNAc(b1-4)[Neu5Ac(a2-8)Neu5Ac(a2-3)]Gal(b1-4)Glc
# In short: as §1
# [34] = biological target: Neu5Ac(a2-8)Neu5Ac(a2-3)Gal(b1-4)Glc
# In short: as §1
# [35] = biological target: Neu5Ac(a2-8)Neu5Ac(a2-3)[Gal(b1-3)GalNAc(b1-4)]Gal(b1-4)Glc
# In short: as §1
# [36] = biological target: Neu5Ac(a2-8)Neu5Ac(a2-3)[GalNAc(b1-4)]Gal(b1-4)Glc
# In short: as §1
# [37] = biological target: Neu5Ac(a2-8)Neu5Ac(a2-8)Neu5Ac
# In short: as §1
# [38] = biological target: Neu5Ac(a2-8)Neu5Ac(a2-8)Neu5Ac(a2-3)Gal(b1-4)Glc
# In short: as §1
# [39] = biological target: Neu5Ac(a2-8)Neu5Ac(a2-8)Neu5Ac(a2-3)[GalNAc(b1-4)]Gal(b1-4)Glc
# In short: as §1
# [40] = biological target: Neu5Ac(a2-8)Neu5Ac(a2-8)Neu5Ac(a2-8)Neu5Ac(a2-3)[GalNAc(b1-4)]Gal(b1-4)Glc
# In short: as §1
# [41] = biological target: Neu5Ac(b2-6)Gal(b1-4)GlcNAc
# In short: as §1
# Neu5Ac(b2-6)GalNAc = biological target: Neu5Ac(b2-6)GalNAc
# In short: as §1
# [42] = biological target: Neu5Ac9Ac(a2-3)Gal(b1-3)GlcNAc
# In short: as §1
# [43] = biological target: Neu5Ac9Ac(a2-3)Gal(b1-4)GlcNAc
# In short: as §1
# [44] = biological target: Neu5Ac9Ac(a2-6)Gal(b1-4)GlcNAc
# In short: as §1
# [45] = biological target: Neu5Gc(a2-3)Gal(b1-3)GlcNAc
# In short: as §1
# [46] = biological target: Neu5Gc(a2-3)Gal(b1-3)[Fuc(a1-4)]GlcNAc
# In short: as §1
# Neu5Gc(a2-3)Gal(b1-4)Glc = biological target: Neu5Gc(a2-3)Gal(b1-4)Glc
# In short: as §1
# [47] = biological target: Neu5Gc(a2-3)Gal(b1-4)GlcNAc
# In short: as §1
# [48] = biological target: Neu5Gc(a2-3)Gal(b1-4)[Fuc(a1-3)]GlcNAc
# In short: as §1
# [49] = biological target: Neu5Gc(a2-6)Gal(b1-4)GlcNAc
# In short: as §1
# Neu5Gc(a2-6)GalNAc = biological target: Neu5Gc(a2-6)GalNAc
# In short: as §1
# [50] = biological target: Neu5Gc(b2-6)Gal(b1-4)GlcNAc
# In short: as §1
binder,measurement,setting,value
"Strep tagII-anxA1 (Homo sapiens), P04083 (protein) MAMVSEFLKQAWFIENEEQEYVQTVKSSKGGPGSAVSPYPTFNPSSDVAALHKAIMVKGVDEATIIDILTKRNNAQRQQIKAAYLQETGKPLDETLKKALTGHLEEVVLALLKTPAQFDADELRAAMKGLGTDEDTLIEILASRTNKEIRDINRVYREELKRDLAKDITSDTSGDFRNALLSLAKGDRSEDFGVNEDLADSDARALYEAGERRKGTDVNVFNTILTTRSYPQLRRVFQKYTKYSKHDMNKVLDLELKGDIEKCLTAIVKCATSKPAFFAEKLHQAMKGVGTRHKALIRIMVSRSEIDMNDIKAFYQKMYGISLCQAILDETKGDYEKILVALCGGN",glycan array binding signal (z-score),[1],-0.726
same,glycan array binding signal (z-score),Neu5Ac(a2-3)GalNAc,-0.592
same,glycan array binding signal (z-score),[2],-0.385
same,glycan array binding signal (z-score),[3],-0.206
same,glycan array binding signal (z-score),[4],-0.579
same,glycan array binding signal (z-score),[5],-0.294
same,glycan array binding signal (z-score),[6],-0.317
same,glycan array binding signal (z-score),Neu5Ac(a2-6)Gal,-0.44
same,glycan array binding signal (z-score),[7],-0.737
same,glycan array binding signal (z-score),Neu5Ac(a2-6)Gal(b1-4)Glc,0.446
same,glycan array binding signal (z-score),[8],0.201
same,glycan array binding signal (z-score),[9],-0.177
same,glycan array binding signal (z-score),[10],0.553
same,glycan array binding signal (z-score),[11],-0.496
same,glycan array binding signal (z-score),[12],-0.171
same,glycan array binding signal (z-score),[13],-0.353
same,glycan array binding signal (z-score),[14],-0.15
same,glycan array binding signal (z-score),[15],1.87
same,glycan array binding signal (z-score),[16],0.14
same,glycan array binding signal (z-score),[17],-0.101
same,glycan array binding signal (z-score),[18],-0.595
same,glycan array binding signal (z-score),[19],-0.426
same,glycan array binding signal (z-score),[20],-0.337
same,glycan array binding signal (z-score),[21],-0.33
same,glycan array binding signal (z-score),[22],0.122
same,glycan array binding signal (z-score),[23],0.677
same,glycan array binding signal (z-score),[24],-0.096
same,glycan array binding signal (z-score),[25],0.603
same,glycan array binding signal (z-score),[26],2.63
same,glycan array binding signal (z-score),[27],-0.633
same,glycan array binding signal (z-score),[28],-0.423
same,glycan array binding signal (z-score),Neu5Ac(a2-6)GalNAc,-0.762
same,glycan array binding signal (z-score),[29],-0.422
same,glycan array binding signal (z-score),[30],0.246
same,glycan array binding signal (z-score),[31],-0.032
same,glycan array binding signal (z-score),[32],-0.66
same,glycan array binding signal (z-score),Neu5Ac(a2-8)Neu5Ac,0.257
same,glycan array binding signal (z-score),[33],0.503
same,glycan array binding signal (z-score),[34],-0.658
same,glycan array binding signal (z-score),[35],1.46
same,glycan array binding signal (z-score),[36],-0.763
same,glycan array binding signal (z-score),[37],-0.49
same,glycan array binding signal (z-score),[38],-0.488
same,glycan array binding signal (z-score),[39],-0.677
same,glycan array binding signal (z-score),[40],-0.633
same,glycan array binding signal (z-score),[41],-0.44
same,glycan array binding signal (z-score),Neu5Ac(b2-6)GalNAc,-0.503
same,glycan array binding signal (z-score),[42],-0.681
same,glycan array binding signal (z-score),[43],-0.482
same,glycan array binding signal (z-score),[44],0.087
same,glycan array binding signal (z-score),[45],-0.351
same,glycan array binding signal (z-score),[46],-0.102
same,glycan array binding signal (z-score),Neu5Gc(a2-3)Gal(b1-4)Glc,0.538
same,glycan array binding signal (z-score),[47],-0.083
same,glycan array binding signal (z-score),[48],0.35
same,glycan array binding signal (z-score),[49],-0.388
same,glycan array binding signal (z-score),Neu5Gc(a2-6)GalNAc,-0.469
same,glycan array binding signal (z-score),[50],-0.654
